Data as given in the supplement of paper PMC11417369.
± gives the standard deviation of the averaged measurements. Some of the results follow.

System: PfAP2-LT AP2 domain (GST-tagged)
Assay: gcPBM binding intensity (ln(normalized median fluorescence intensity)); higher = stronger DNA binding
Method in brief: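 In this array assay, P. falciparum DNA-binding domains with a GST tag, expressed in E. coli, were applied for 1 h to primer-extended double-stranded 36-bp intergenic genomic probes and negative controls on an Agilent 4 × 180k array. Bound protein was visualised with Alexa488 anti-GST antibody at 488 nm. Binding intensity is the highest Masliner-normalised natural-log median intensity across replicate spots of either probe orientation.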

Row | Sequence | gcPBM binding intensity (ln)
1 | CTAAAATACAGACACACACACACATATATATATATA [CACACA_site4150] | 10.07 ± 0.021
2 | TTAAAATAGGGCGAAGAAATTTTCTGTAAACATTTG [CACACA_negctrl_site1010] | 8.38 ± 0.53
3 | ATATGCTTATATTATATATATAAGTCTATATATTTT [XGTACX_negctrl_site349] | 8.71 ± 0.38
4 | GGGTTTTTAAAATGTAGTACATATGTAAACATCAAA [XGTACX_site1262] | 8.69 ± 0.57
5 | ATATATATAAAATGTTGTACATATATATAAATAATA [XGTACX_site1661] | 8.67 ± 0.44
6 | AGGTTTTCTTAAATAGTGCATTATAACAAAAATAAA | 8.3 ± 0.45
7 | TCACGTATGTATATTACACACATACATATTATTCAC [CACACA_site4276] | 9.17 ± 0.33
8 | CATAAATAAGCTTTAGTGCATTATATTTAAATTTTT | 8.55 ± 0.4
9 | ATATTATATATATATAAACACACAAATATTTTTATA [CACACA_site8486] | 8.72 ± 0.4
10 | ATAAAATGAACCTTTTGTACATATATATATATATAT [XGTACX_site4610] | 9.48 ± 0.23
11 | AACATCTCATATCGTACTACACTCATATATATATAT [XGTACX_site170] | 9.3 ± 0.18
12 | TGAATATTTCTATATACACACATATATATATATATA [CACACA_site3451] | 9.53 ± 0.28
13 | TTTAATAATAATAAAAGTACACAAATATAAAGGAAA [XGTACX_site5203] | 8.73 ± 0.43
14 | TAAAGTAAAGACATACTTATTTTCCATCCACTTCTT [CACACA_negctrl_site1288] | 8.71 ± 0.58
15 | AAACAATAAAAGATTACACACATATATAGCATCTAT [CACACA_site5012] | 9.06 ± 0.3
16 | TTTCATTTGTCGTTATGTACTTATTAAATATTATTA [XGTACX_site7709] | 8.75 ± 0.4
17 | TCTGTATATTTCGCGCGTACGAACAAATTGATAATT [XGTACX_site7965] | 8.92 ± 0.4
18 | ATATAATATGGTATTACACACTGTTAAAAGTATGGC [CACACA_site5190] | 8.95 ± 0.4
19 | ATATATATTTTTATAACACACAATGAAGTACATTAC [CACACA_site8270] | 8.77 ± 0.41
20 | CACATACAGACATACACACATACACATATACGCATA [CACACA_site1745] | 9.61 ± 0.36
